# Experimental data as given in PubChem BioAssay AID686978 (National Center for Advancing Translational Sciences (NCATS), 2013).
# The whole screen tested about 420,000 compounds, of which about 64,000 (15%) were called active. This list was built around the results that the source calls inconclusive (neither active nor inactive); the mix of calls is not that of the screen. Calls follow the shape of the dose curve; as a rule, active = well fitted inhibition curve with a large enough effect; inconclusive = small, poorly fitted or top-dose-only effect; inactive = flat fitted curve, though single readings scatter. No potency is given beside an inconclusive call; the fits are too rough.
# Test: qHTS for Inhibitors of human tyrosyl-DNA phosphodiesterase 1 (TDP1): qHTS in cells in absence of CPT; also: nearly all actives have a fitted effect of over 55% in size
# Settings: DT40 Tdp1-/- hTDP1 cells, no CPT, ATP luminescence, 48 h; activity change, negative = growth inhibition: at 46.2 µM (top of the series) unless noted
# Method in brief: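 Camptothecin absent (DMSO only). Human TDP1-complemented DT40 knockout cells, 400 cells/well, 37 °C for minimum 48 hr; ATP measured via CellTiter-Glo, 30 min dark incubation, luminescence.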
# % is scaled to controls: 0 for no effect and ±100 for the full control effect; potency is read from the fitted curve at half-maximal effect; tags tell the direction and shape of the fitted curve.
Structure (SMILES),Potency,"activity change, negative = growth inhibition"
CNc1cnc(-c2ccc(O)c(OC)c2)cn1,"inconclusive [inhibitor, single point]",–
CC(=O)c1c(C)oc2c(Cl)cc(NS(=O)(=O)c3cc(C)c(C)cc3C)cc12,"inconclusive [inhibitor, partial curve, poor fit]",–
COc1ccc(/C=C2\CN(Cc3ccccc3)C/C(=C\c3ccc(OC)c(O)c3)C2=O)cc1O,active: 2.06 µM,–
CCOC(=O)CNC(c1ccccc1)c1cc(Br)ccc1NC(=O)c1ccc(Cl)cc1 (stereo not drawn),active: 6.51 µM,–
FC(F)(F)c1ccc(-n2cn[nH]c2=S)cc1,inactive,–
C=C1CCN(c2ccc(C(=O)NCc3ccc(OC)cc3)cc2[N+](=O)[O-])CC1,"inconclusive [inhibitor, single point]",–
COCc1cc(C)n(CC(=O)Nc2ccc3c(c2)OCO3)c(=O)c1C#N,–,inconclusive: -5.04% [inhibitor]
Cc1ccc(S(=O)(=O)c2nnn(CC(=O)Nc3ccccc3C)c2N)cc1C,active: 14.6 µM,–
Cc1cc(C(F)F)nn1CC(=O)NCc1ccc(Cl)cc1Cl,"inconclusive [inhibitor, single point]",–
COc1ccc([C@H]2C[C@H](O)[C@@H](n3cc(COC(=O)c4ccccc4)nn3)CN2C(=O)C2CCCCC2)cc1,"inconclusive [inhibitor, single point]",–
Cc1cc(-c2ccccc2)nc2[n+]1CCN2C,"inconclusive [inhibitor, single point]",–
COc1ccccc1NC(=S)NCCSc1ccc(C)cc1,"inconclusive [inhibitor, single point]",–
O=C(CCCSc1nc2ccccc2[nH]1)NCc1ccccc1Cl,"inconclusive [inhibitor, single point]",–
Cc1ccc(S(=O)(=O)N2CCCCC2CCNC(=O)C(=O)Nc2ccccc2F)cc1 (stereo not drawn),active: 5.8 µM,–
COc1ccc(CN(C)C(C)C(=O)Nc2cccc3ccccc23)cc1 (stereo not drawn),"inconclusive [inhibitor, single point]",–
COc1ccc(-c2c(=O)n(OCc3ccccn3)c3ccccc3[n+]2[O-])cc1OC,"inconclusive [inhibitor, single point]",–
CCOC(=O)CCc1c(C(=O)OCC)[nH]c(CC)c1C(=O)OCc1ccccc1,"inconclusive [inhibitor, single point]",–
COC(=O)c1sc(-c2ccccc2)cc1NC(=O)c1ccc(F)cc1,–,inconclusive: -31.3% [inhibitor]
COc1cc(C(=O)O/N=C2\CCCc3c2ccc(OC)c3[N+](=O)[O-])cc(OC)c1OC,active: 3.26 µM,–
CC(=O)NC(=S)NNC(=O)C(c1ccccc1)c1ccccc1,active: 20.6 µM,–
O=C1CCCN1CC1CCCN(Cc2nc(COc3ccccc3)no2)C1 (stereo not drawn),–,inconclusive: -33.2% [inhibitor]
COc1ccc(NC(=O)CC2SC(N3CCCCC3)=NC2=O)cc1OC (stereo not drawn),inactive,–

Structure (SMILES),Potency,"activity change, negative = growth inhibition"
Cc1ccc(Cn2ccc(NC(=O)c3nn(C)cc3Cl)n2)cc1,inactive,–
O=C(Nc1cccc(F)c1)N1CC2(CCN(C(=O)c3cnccn3)CC2)C1,"inconclusive [inhibitor, single point]",–
Cc1cccc(C(C)C)c1NC(=O)C1CN(S(=O)(=O)c2ccccc2)CCN1S(=O)(=O)c1ccccc1 (stereo not drawn),active: 18.4 µM,–
O=C(O)C1=C[C@@H](c2ccc(C(F)(F)F)cc2)C[C@@H](OCCCCO)O1,inactive,–
Cc1cccc([C@@H]2C[C@H]3CN(Cc4cccc(Cl)c4)C(=O)[C@]34CCCN24)n1,"inconclusive [inhibitor, single point]",–
COc1ccccc1N1CCN(Cc2cnc3ccc(Cl)cn23)CC1,active: 13 µM,–
CC(C)(C)c1ccc(C(=O)CCC(=O)NCc2ccccc2)cc1,"inconclusive [inhibitor, single point]",–
c1ccc(-c2nc(-n3ccnc3)nc(-n3ccnc3)n2)cc1,active: 10.3 µM,–
CC(C)N(C(=O)COC(=O)c1cccc(N(C)C)c1)c1ccccc1,"inconclusive [inhibitor, single point]",–
COc1ccc(C2C(C#N)=C(N)Oc3n[nH]c(C)c32)cc1CN1CCN(c2ccc(F)cc2)CC1 (stereo not drawn),"inconclusive [inhibitor, single point]",–
CCN(CC)CCN(C(=O)c1ccc(Br)s1)c1nc2cc3c(cc2s1)OCCO3,"inconclusive [inhibitor, partial curve, poor fit]",–
O=[N+]([O-])c1ccc(N=Nc2ccc(O)c3ccccc23)cc1,active: 2.59 µM,–
CC1CCC2C(=O)N(c3ccccc3OC(=O)c3ccccc3F)C(=O)C2C1 (stereo not drawn),"inconclusive [inhibitor, partial curve, poor fit]",–
COC(=O)/C=C/c1c(C)nc(NCc2ccccc2)nc1Cl,"inconclusive [inhibitor, partial curve, poor fit]",–
O=C(NCCc1c[nH]c2ccccc12)c1ccc2c(c1)OCO2,"inconclusive [inhibitor, single point]",–
CCC(C(=O)NC1CCCC1)N(C(=O)Cn1nnc(-c2ccc(C)o2)n1)c1ccccc1OC (stereo not drawn),"inconclusive [inhibitor, partial curve]",–
O=C(NCc1ccccc1F)C(=O)NCC(c1cccs1)S(=O)(=O)c1cccs1 (stereo not drawn),"inconclusive [inhibitor, partial curve, poor fit]",–
O=C(CCC1N=C2c3ccccc3N=C(SCc3ccccc3Cl)N2C1=O)NCc1cccs1 (stereo not drawn),active: 20.6 µM,–
CS(=O)(=O)c1ccc(C(=O)OCC(=O)NC(=O)C2COc3ccccc3O2)cc1[N+](=O)[O-] (stereo not drawn),active: 18.4 µM,–
CCN1CCN(S(=O)(=O)c2ccc(Cl)c(C(=O)Nc3ccccc3N3CCCC3)c2)CC1,"inconclusive [inhibitor, single point]",–
CCc1nc2c(OCC=C(C)C)cccn2c1N(C)C(=O)c1ccc(OC)cc1,active: 13 µM,–
